Measurements from PMC4336329 (PLoS ONE, 2015).
Among all 310,000 compounds or so, about 2,200 (0.71%) showed an effect of 50% or more. Effects have a minus sign here. Some of the results follow.

Molecular target: human ether-à-go-go-related gene (hERG) potassium channel (human, UniProt Q12809)
Assay: primary screen, population patch clamp on CHO cells stably expressing hERG

human ether-à-go-go-related gene (hERG) potassium channel, sequence (Q12809 whole entry, looked up): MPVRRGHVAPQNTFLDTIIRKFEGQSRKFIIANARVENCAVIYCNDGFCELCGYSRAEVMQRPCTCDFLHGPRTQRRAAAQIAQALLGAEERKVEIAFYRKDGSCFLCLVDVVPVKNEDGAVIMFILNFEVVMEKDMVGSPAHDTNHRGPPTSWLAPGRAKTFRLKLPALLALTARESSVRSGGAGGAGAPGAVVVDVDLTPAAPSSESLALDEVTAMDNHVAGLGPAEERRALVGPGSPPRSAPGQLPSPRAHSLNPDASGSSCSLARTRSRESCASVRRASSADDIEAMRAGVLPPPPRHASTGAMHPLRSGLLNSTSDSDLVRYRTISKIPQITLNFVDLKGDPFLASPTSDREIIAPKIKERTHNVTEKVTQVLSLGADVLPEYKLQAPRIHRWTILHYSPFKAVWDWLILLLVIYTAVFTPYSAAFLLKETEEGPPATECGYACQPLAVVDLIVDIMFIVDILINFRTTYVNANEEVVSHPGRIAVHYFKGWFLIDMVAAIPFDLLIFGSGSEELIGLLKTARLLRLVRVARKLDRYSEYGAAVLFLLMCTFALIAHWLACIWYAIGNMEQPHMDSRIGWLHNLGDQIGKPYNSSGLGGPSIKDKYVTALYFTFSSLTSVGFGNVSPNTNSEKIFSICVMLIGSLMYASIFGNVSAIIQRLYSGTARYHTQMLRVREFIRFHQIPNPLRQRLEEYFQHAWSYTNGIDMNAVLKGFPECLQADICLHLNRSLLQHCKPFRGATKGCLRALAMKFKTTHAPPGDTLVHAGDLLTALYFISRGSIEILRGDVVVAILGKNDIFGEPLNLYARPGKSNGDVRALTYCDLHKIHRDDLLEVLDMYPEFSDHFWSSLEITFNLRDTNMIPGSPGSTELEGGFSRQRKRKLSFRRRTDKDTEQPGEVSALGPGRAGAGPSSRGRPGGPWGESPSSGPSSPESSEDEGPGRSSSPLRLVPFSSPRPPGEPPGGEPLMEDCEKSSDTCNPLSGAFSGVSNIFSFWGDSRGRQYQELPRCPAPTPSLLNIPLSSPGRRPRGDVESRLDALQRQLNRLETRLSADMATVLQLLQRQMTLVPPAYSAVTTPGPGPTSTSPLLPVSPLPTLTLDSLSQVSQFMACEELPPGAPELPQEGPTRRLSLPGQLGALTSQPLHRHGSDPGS

| SMILES | hERG current change (%, negative = inhibition) at 1uM [%] |
| --- | --- |
| COc1cc(C)c(S(=O)(=O)Nc2ccc(CC(=O)O)cc2)cc1C | 0.39 |
| Cc1cc(C(=O)Nc2ccccc2N2CCOCC2)c2ccccc2n1 | 3.74 |
| CCOc1ccc(CC(=O)C2C(=O)CCCC2=O)cc1OCC | 2.94 |
| O=C(COC(=O)/C=C/c1ccccc1)Nc1cccc(Oc2ccccc2)c1 | 10.3 |
| Cc1cccc([N+](=O)[O-])c1NC(=O)COC(=O)c1nc2nccc(C)n2n1 | 14.7 |
| O=C(OCc1cn(-c2ccc(Cl)c(Cl)c2)nn1)c1ccccc1 | -1.94 |
| COc1cccc(N2C(=O)C3CCCN3C2c2cccs2)c1 (centres unmarked) | 17.6 |
| COC(=O)c1cccc(NC(=O)CCNC(=O)c2ccc([N+](=O)[O-])cc2)c1 | -8.03 |
| COc1ccc2sc(N(CCCN(C)C)C(=O)c3ccc(S(=O)(=O)N4CCCC4)cc3)nc2c1.Cl | 11.1 |
| CCOc1cc(C)ccc1OCc1nnc(SCC(=O)c2cccc([N+](=O)[O-])c2)n1CC | -1.84 |
| CCOC(=O)C1CCCN(CC(=O)NC2=Nc3ccccc3N=C(C)C2c2ccccc2)C1 (centres unmarked) | -0.9 |
| O=C(CSc1nc2ncc(Br)cc2[nH]1)c1cccc([N+](=O)[O-])c1 | 8.8 |
| Cc1cccc(OCCN2CSC(=S)N(C)C2)c1 | 11 |
| CCCn1nc(C(=O)NNC(=O)c2cc(S(=O)(=O)NC)ccc2Br)c2ccccc2c1=O | 18.3 |
| O=C(CSc1ccc2nnc(CCNC(=O)c3ccccc3)n2n1)Nc1ccccc1F | 10.8 |
| CC(=O)c1ccc(S(=O)(=O)N2CCCc3ccccc32)cc1 | 13.6 |
| Cc1cc(NS(=O)(=O)c2ccc(C(C)C)cc2)no1 | -11.6 |
| COc1ccc(CNc2nn[nH]n2)cc1OC | 15.2 |
| COc1ccc(-n2c(Cc3cc(=O)[nH]c(=O)[nH]3)nnc2SCC(=O)NC2CCCC2)cc1 | 11.2 |
| CC(C)(C)c1ccc(C(CC(=O)O)NS(=O)(=O)Cc2ccccc2)cc1 (centres unmarked) | 14.4 |
| COc1ccc2nc(N3CCCC(C(=O)NCCCN4C(C)CCCC4C)C3)sc2c1 (centres unmarked) | 2.93 |
| CCc1cccc(NC(=O)c2ccc(Cn3c(=O)[nH]c4ccsc4c3=O)cc2)c1 | 11.6 |

| SMILES | hERG current change (%, negative = inhibition) at 1uM [%] |
| --- | --- |
| O=C(NCCCN1CCOCC1)c1cccc(S(=O)(=O)N2CCc3ccccc3C2)c1 | 5.86 |
| O=C(CSc1ccc2nnc(-c3ccncc3)n2n1)NCC1CCCO1 (centres unmarked) | 6.96 |
| COc1cc(-n2c(-c3ccccc3)n[nH]c2=S)c(OC)cc1Cl | 4.69 |
| Cc1cc(C)c(S(=O)(=O)c2cccc(Br)c2C)c(Cl)n1 | 13.1 |
| CCNC(=S)Nc1c(C)n(C)n(-c2ccccc2)c1=O | 6.26 |
| O=C(CSc1nnc(CNc2ccc(F)cc2)n1Cc1ccccc1)NCc1ccco1 | 10.2 |
| CC(=O)Nc1ccc(S(=O)(=O)NCc2ccc(C(=O)NCc3ccc4c(c3)OCO4)cc2)cc1 | 8 |
| CN1OCC2Cn3c(nc4ccccc43)C21 (centres unmarked) | 16.4 |
| O=C(CSc1nc2ccc(Cl)cc2o1)NCc1ccc2c(c1)OCO2 | 7.69 |
| Cc1cccc(OCCC(=O)OCc2csc(CC(=O)Nc3ccccc3C)n2)c1 | 11.6 |
| N#Cc1c(-c2ccccc2)cc(-c2ccccc2)nc1Br | 2.9 |
| COc1cc(CN2C(=S)NC(C)(C)CC2(C)O)cc(OC)c1 (centres unmarked) | 13 |
| COCCNC(=O)Cn1c(=O)n(CCCCCC(=O)NCc2ccc3c(c2)OCO3)c(=O)c2sccc21 | 3.27 |
| Cc1cc(C)n2c(SC/C(O)=C(\C#N)c3nc4ccccc4[nH]3)nnc2n1 | -19.2 |
| CCCCN(c1ccccc1)S(=O)(=O)c1cccc2cccnc12 | -0.126 |
| Cc1ccc(C)c(SCC(=O)Nc2ccc(C)c(S(=O)(=O)N3CCOCC3)c2)c1 | 6.29 |
| O=C(O)CCCC(=O)Nc1ccc(Br)cc1 | 21.6 |
| CC1CC(C)CN(CCCNC(=O)c2csc3c2CCCCC3)C1 (centres unmarked) | -24.6 |
| O=C(NNC(=O)c1ccccc1-n1cccc1)c1ccc(Cl)cc1 | 10.9 |
| Cn1cc(CNCCCn2ncc3ccccc32)c(-c2ccccc2F)n1 | -11.3 |
| COc1ccccc1-n1c(CNC(=O)c2ccco2)nnc1SCC(=O)Nc1cc(C)ccc1C | 3.69 |
| CCOC(=O)C1=C2SCCN2C(=O)C(C#N)C1(C)C (centres unmarked) | 2.97 |

| SMILES | hERG current change (%, negative = inhibition) at 1uM [%] |
| --- | --- |
| O=C(O)c1ccc(COc2ccc3c(c2)CCC3)cc1 | 15 |
| CC(C)Cc1n[nH]c(=O)c2c1nnn2Cc1ccccc1F | 5.15 |
| COc1ccc(C(=O)c2cnc3ccccc3c2-c2ccccc2)cc1 | 6.04 |
| CCCN(CCC)CCCNC(=O)c1cn(-c2ccc(OC)cc2)c(=O)c2ccccc12 | 1.46 |
| COc1ccc(CCn2c(=N)c(C(=O)NCCN3CCOCC3)cc3c(=O)n4ccccc4nc32)cc1OC | 10.4 |
| COCCNC(=O)CN(Cc1ccco1)C(=O)CCC(=O)Nc1nccs1 | 5.6 |
| CCOc1ccc(NC(=O)CSc2nnc(C3CC3)n2C)cc1S(=O)(=O)N1CCCCC1 | 11.7 |
| COCCn1c(=S)[nH]c2cc(C(=O)NCCc3ccccc3)ccc2c1=O | 9.53 |
| Cn1cccc1C(=O)OCC(=O)NCc1ccc2c(c1)OCO2 | -3 |
| CCN(C(=O)Cc1ccccc1OC)c1nnc(-c2ccncc2)s1 | -2.65 |
| Cc1nn(Cc2c(Cl)cccc2Cl)c(C)c1NC(=O)CCCn1nc([N+](=O)[O-])c(Cl)c1C | -6.64 |
| CCN(Cc1nc(-c2ccc(OC)cc2)no1)C(=O)c1ccoc1C | 14.9 |
| O=C(NC1CC1)c1cc(-c2ccccn2)nc2ccccc12 | -1.15 |
| CCCCc1nc2cc(C(=O)N(C)CCc3cn[nH]c3)ccc2o1 | 10.6 |
| CCOc1ccc(C(=O)O/N=C(\N)c2ccc([N+](=O)[O-])cc2)cc1OCC | 13.3 |
| CC1CCC(N(C(=O)c2csnn2)C(C(=O)NC(C)(C)C)c2cccnc2)CC1 (centres unmarked) | -0.468 |
| Cc1ccc(S(=O)(=O)N2CCN(C(=O)CSC(=S)N3CCCC3)CC2)c(C)c1 | 8.6 |
| CC(C)CCNc1nc(N)c([N+](=O)[O-])c(NC2CCCCC2)n1 | 7.05 |
| Cc1sc2nc(SCC(=O)NCc3ccco3)n(C)c(=O)c2c1C | -3.55 |
| CS(=O)(=O)N1CCN(c2nc3ccccc3s2)CC1 | 5.81 |
| O=C(Nc1ccc(C(=O)NCCCN2CCN(c3ccccc3)CC2)cc1)C1=CSCCO1 | 5.57 |
| CC(C)(C)C(=O)NC(=S)Nc1ccc(Cc2ccncc2)cc1 | 16 |

| SMILES | hERG current change (%, negative = inhibition) at 1uM [%] |
| --- | --- |
| Cc1ccc(C(=O)OCC(=O)NC(=O)c2cccn2C)cc1[N+](=O)[O-] | 11.5 |
| CCCn1c(=NC(C)=O)c(C(=O)OCC)cc2c(=O)n3ccccc3nc21 | 8.09 |
| Cc1[nH]c2ccccc2c1C(=O)NS(=O)(=O)Nc1ccc(Cl)cc1 | 9.2 |
| CC(C)CN(CC(C)C)C(=O)c1cccc(S(=O)(=O)N2CCc3ccccc32)c1 | 0.384 |
| COc1ccc(C(NC(C)=O)c2nccc3cc(OC)c(OC)cc23)cc1OC (centres unmarked) | 14.6 |
| O=C(COc1ccc(NC(=O)c2ccccc2[N+](=O)[O-])cc1)c1ccc(F)cc1 | 11.5 |
| O=C(Cc1ccc(Cl)cc1)Nc1ccc(Br)cc1 | 6.68 |
| COc1ccc(-c2cc3c(=O)n(CC(=O)NCc4ccc(C)cc4)ncn3n2)cc1 | 4.61 |
| N#Cc1c(Sc2ncc(C(F)(F)F)cc2Cl)nsc1C/C=N\OCc1c(F)cccc1Cl | 2.01 |
| CC(O)[C@H]1CC[C@H]2[C@@H]3CC[C@H]4C[C@H](O)CC[C@]4(C)[C@H]3[C@H](O)C[C@]12C (some centres unmarked) | 12.2 |
| C#CCN1C(=O)C2C(C(=O)NC)C3C=CC2(O3)C1C(=O)NCc1ccc(OC)cc1 (centres unmarked) | 8.8 |
| Cc1ccc(NC(=O)CN2C(=O)S/C(=C/c3ccncc3)C2=O)cc1 | 9.58 |
| CCCn1nnnc1NCc1cccc(Cl)c1 | 8.87 |
| COc1oc(-c2ccc(Cl)cc2)nc1C(F)(F)F | 8.77 |
| Cc1ccc(S(=O)(=O)N2CCCCC2C(=O)Nc2nncs2)cc1 (centres unmarked) | 8.1 |
| S=c1[nH]nc(-c2ccccn2)n1/N=C/c1cccc(Cl)c1 | 13.1 |
| Cc1cccc(CN2CCC(C(=O)Nc3ccc(-n4nc(C)cc4C)cc3)CC2)n1 | 5.92 |
| Cc1ccc(N(CC(=O)NC(C)C)C(=O)CCC(=O)Nc2nccs2)c(C)c1 | 12.6 |
| O=S(=O)(c1ccc(Cl)nc1)N1CCc2ccccc21 | 20.3 |
| CNC(=O)c1cc(C(=O)c2ccc(C(F)(F)F)cc2)c[nH]1 | 17.4 |
